Reference: the supplement of paper PMC8728848
This is one part of the list.

Columns and labels:
Assay in all cases: glycan array binding signal (z-score within array); higher = stronger binding
Settings in all cases: glycan notation: IUPAC condensed, linker removed
Fuc(a1-2)Gal = target: Fuc(a1-2)Gal
In short: (§1)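 Glycan array data were curated from 3228 arrays in the Consortium for Functional Glycomics database and kept only where the protein sequence was available. Glycan names were converted to IUPAC-condensed notation, and columns mapping to the same glycan were averaged. The binding signal is a within-array Z-score, averaged across arrays of the same protein sequence at different concentrations or buffers and across linkers. Negative Z-scores can be read as non-binding.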

Fuc(a1-2)Gal(b1-3)GalNAc = target: Fuc(a1-2)Gal(b1-3)GalNAc
In short: as §1

[1] = target: Fuc(a1-2)Gal(b1-3)GalNAc(a1-3)[Fuc(a1-2)]Gal(b1-4)Glc
In short: as §1

[2] = target: Fuc(a1-2)Gal(b1-3)GalNAc(a1-3)[Fuc(a1-2)]Gal(b1-4)GlcNAc
In short: as §1

[3] = target: Fuc(a1-2)Gal(b1-3)GalNAc(b1-3)Gal
In short: as §1

[4] = target: Fuc(a1-2)Gal(b1-3)GalNAc(b1-3)Gal(a1-4)Gal(b1-4)Glc
In short: as §1

[5] = target: Fuc(a1-2)Gal(b1-3)GalNAc(b1-4)[Neu5Ac(a2-3)]Gal(b1-4)Glc
In short: as §1

Fuc(a1-2)Gal(b1-3)GlcNAc = target: Fuc(a1-2)Gal(b1-3)GlcNAc
In short: as §1

[6] = target: Fuc(a1-2)Gal(b1-3)GlcNAc(b1-2)Man(a1-3)[Fuc(a1-2)Gal(b1-3)GlcNAc(b1-2)Man(a1-6)]Man(b1-4)GlcNAc(b1-4)GlcNAc
In short: as §1

[7] = target: Fuc(a1-2)Gal(b1-3)GlcNAc(b1-2)Man(a1-3)[Fuc(a1-2)Gal(b1-3)GlcNAc(b1-2)Man(a1-6)]Man(b1-4)GlcNAc(b1-4)[Fuc(a1-6)]GlcNAc
In short: as §1

[8] = target: Fuc(a1-2)Gal(b1-3)GlcNAc(b1-3)Gal(b1-4)Glc
In short: as §1

[9] = target: Fuc(a1-2)Gal(b1-3)GlcNAc(b1-3)GalNAc
In short: as §1

[10] = target: Fuc(a1-2)Gal(b1-3)GlcNAc(b1-3)[Fuc(a1-2)Gal(b1-3)GlcNAc(b1-6)]GalNAc
In short: as §1

[11] = target: Fuc(a1-2)Gal(b1-3)GlcNAc(b1-3)[Gal(b1-4)GlcNAc(b1-6)]Gal(b1-4)Glc
In short: as §1

[12] = target: Fuc(a1-2)Gal(b1-3)GlcNAc(b1-3)[Neu5Ac(a2-6)Gal(b1-4)GlcNAc(b1-6)]Gal(b1-4)Glc
In short: as §1

[13] = target: Fuc(a1-2)Gal(b1-3)GlcNAc6S
In short: as §1

[14] = target: Fuc(a1-2)Gal(b1-3)[Fuc(a1-4)]GlcNAc
In short: as §1

[15] = target: Fuc(a1-2)Gal(b1-3)[Fuc(a1-4)]GlcNAc(b1-2)Man(a1-3)[Fuc(a1-2)Gal(b1-3)[Fuc(a1-4)]GlcNAc(b1-2)Man(a1-3)]Man(b1-4)GlcNAc(b1-4)GlcNAc
In short: as §1

[16] = target: Fuc(a1-2)Gal(b1-3)[Fuc(a1-4)]GlcNAc(b1-2)Man(a1-3)[Fuc(a1-2)Gal(b1-3)[Fuc(a1-4)]GlcNAc(b1-2)Man(a1-6)]Man(b1-4)GlcNAc(b1-4)[Fuc(a1-6)]GlcNAc(b1-4)[Fuc(a1-6)]GlcNAc
In short: as §1

[17] = target: Fuc(a1-2)Gal(b1-3)[Fuc(a1-4)]GlcNAc(b1-3)[Fuc(a1-3)[Gal(b1-4)]GlcNAc(b1-6)]Gal(b1-4)Glc
In short: as §1

[18] = target: Fuc(a1-2)Gal(b1-3)[Fuc(a1-4)]GlcNAc(b1-3)[Gal(b1-4)GlcNAc(b1-6)]Gal(b1-4)Glc
In short: as §1

[19] = target: Fuc(a1-2)Gal(b1-4)Fuc(a1-3)]GlcNAc(b1-2)Man(a1-3)[Fuc(a1-2)Gal(b1-4)[Fuc(a1-3)]GlcNAc(b1-2)Man(a1-6)]Man(b1-4)GlcNAc(b1-4)GlcNAc
In short: as §1

Fuc(a1-2)Gal(b1-4)Glc = target: Fuc(a1-2)Gal(b1-4)Glc
In short: as §1

Fuc(a1-2)Gal(b1-4)Glc6S = target: Fuc(a1-2)Gal(b1-4)Glc6S
In short: as §1

Fuc(a1-2)Gal(b1-4)GlcNAc = target: Fuc(a1-2)Gal(b1-4)GlcNAc
In short: as §1

[20] = target: Fuc(a1-2)Gal(b1-4)GlcNAc(b1-2)Man
In short: as §1

[21] = target: Fuc(a1-2)Gal(b1-4)GlcNAc(b1-2)Man(a1-3)[Fuc(a1-2)Gal(b1-4)GlcNAc(b1-2)Man(a1-6)]Man(b1-4)GlcNAc(b1-4)GlcNAc
In short: as §1

[22] = target: Fuc(a1-2)Gal(b1-4)GlcNAc(b1-2)Man(a1-3)[Fuc(a1-2)Gal(b1-4)GlcNAc(b1-2)Man(a1-6)]Man(b1-4)GlcNAc(b1-4)[Fuc(a1-6)]GlcNAc
In short: as §1

[23] = target: Fuc(a1-2)Gal(b1-4)GlcNAc(b1-2)[Fuc(a1-2)Gal(b1-4)GlcNAc(b1-4)]Man(a1-3)[Fuc(a1-2)Gal(b1-4)GlcNAc(b1-2)Man(a1-6)]Man(b1-4)GlcNAc(b1-4)GlcNAc
In short: as §1

[24] = target: Fuc(a1-2)Gal(b1-4)GlcNAc(b1-3)Gal(b1-4)GlcNAc
In short: as §1

B1: SSR1 (Sclerotium rolfsii), A0A0M3KL30 (protein)
chain: TYKITVRVYQTNPDAFFHPVEKTVWKYANGGTWTITDDQHVLTMGGSGTSGTLRFHADNGESFTATFGVHNYKRWCDIVTNLAADETGMVINQQYYSQKNREEARERQLSNYQVKNAKGRNFQIVYTEAEGNDLHANLIIG
glycan array binding signal (z-score) (Fuc(a1-2)Gal): -0.318 | glycan array binding signal (z-score) (Fuc(a1-2)Gal(b1-3)GalNAc): -0.29 | glycan array binding signal (z-score) [1]: -0.333 | glycan array binding signal (z-score) [2]: 0.377 | glycan array binding signal (z-score) [3]: -0.344 | glycan array binding signal (z-score) [4]: -0.335 | glycan array binding signal (z-score) [5]: -0.338 | glycan array binding signal (z-score) (Fuc(a1-2)Gal(b1-3)GlcNAc): -0.329 | glycan array binding signal (z-score) [6]: -0.342 | glycan array binding signal (z-score) [7]: -0.315 | glycan array binding signal (z-score) [8]: -0.337 | glycan array binding signal (z-score) [9]: -0.35 | glycan array binding signal (z-score) [10]: -0.302 | glycan array binding signal (z-score) [11]: -0.321 | glycan array binding signal (z-score) [12]: -0.342 | glycan array binding signal (z-score) [13]: -0.339 | glycan array binding signal (z-score) [14]: -0.348 | glycan array binding signal (z-score) [15]: -0.329 | glycan array binding signal (z-score) [16]: -0.331 | glycan array binding signal (z-score) [17]: -0.333 | glycan array binding signal (z-score) [18]: -0.35 | glycan array binding signal (z-score) [19]: -0.281 | glycan array binding signal (z-score) (Fuc(a1-2)Gal(b1-4)Glc): -0.315 | glycan array binding signal (z-score) (Fuc(a1-2)Gal(b1-4)Glc6S): -0.345 | glycan array binding signal (z-score) (Fuc(a1-2)Gal(b1-4)GlcNAc): -0.343 | glycan array binding signal (z-score) [20]: -0.348 | glycan array binding signal (z-score) [21]: -0.303 | glycan array binding signal (z-score) [22]: -0.335 | glycan array binding signal (z-score) [23]: -0.332 | glycan array binding signal (z-score) [24]: -0.335
